Data published in PubChem BioAssay AID1240 (Sanford-Burnham Center for Chemical Genomics, 2008).
Out of some 50,000 compounds screened, about 800 (1.6%) showed an effect of 50% or more. The list shows a part of the results.

These compounds were tested against Bcl-2-like protein 10 (Homo sapiens) (UniProt Q9HD36) (assay: Phenotype converters, Bcl-B/TR3 peptide binding displacement, primary biochemical FP (AID 1240;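 further: 0% = Bcl-B with tracer peptide and DMSO and 100% = tracer peptide lacking Bcl-B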)). Settings: GST-Bcl-B / FITC-TR3 peptide fluorescence polarization; stronger effect = higher value; compound at 3.75 mg/L.
Sequence of UniProt Q9HD36 (Q9HD36 whole entry, looked up): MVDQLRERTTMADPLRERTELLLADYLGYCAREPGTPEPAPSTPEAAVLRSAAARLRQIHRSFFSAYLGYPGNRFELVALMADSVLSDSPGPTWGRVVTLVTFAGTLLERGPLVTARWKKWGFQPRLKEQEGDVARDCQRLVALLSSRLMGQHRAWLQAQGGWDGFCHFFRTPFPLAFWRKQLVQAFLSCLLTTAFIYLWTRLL

Compound	displacement
Cc1cccc(CC2CC(=O)N(c3ccc(C)cc3Br)C2=O)c1 (stereo not drawn)	-3.3%
CCc1ccccc1NC(=O)COc1ccc(Br)cc1C(C)(C)C	-2.6%
COC(=O)C1=C(C)N(CCc2ccc(OC)c(OC)c2)C(=O)/C1=C\c1ccc2c(c1)OCO2	-44.1%
CCOc1ccc2nc(SCc3c[nH]c4cc([N+](=O)[O-])ccc34)sc2c1	-5.3%
Cc1ccc(N2CC(C(=O)Nc3ccccc3)CC2=O)cc1 (stereo not drawn)	9.9%
Cc1cccc(C=Nc2ccc(O)cc2)c1	-8.4%
CC(c1ccccc1)N1C(=O)/C(=C\c2ccc(Cl)cc2Cl)SC1=S (stereo not drawn)	-0.4%
O=C(Oc1ccc(/C=N/NC(=O)C2COc3ccccc3O2)cc1)c1cccnc1 (stereo not drawn)	-9%
CN1C(=O)NC(=O)/C(=C/c2ccc(-c3ccc(Cl)cc3Cl)o2)C1=O	72.6%
COc1ccc(OC)c(S(=O)(=O)NCC2CCCO2)c1 (stereo not drawn)	-0.6%
Nc1ccc(-c2nc3ccc(-c4ccc5nc(-c6ccc(N)cc6)[nH]c5c4)cc3[nH]2)cc1	28.8%
COc1cc(OC)c(/C=N/NC(=O)c2cccc(Cl)c2)cc1Br	-0.3%
S=C(NCc1cccnc1)NC12CC3CC(CC(C3)C1)C2	-3.5%
COc1ccc2c(c1OC)C(=O)OC2Nc1ncccc1C (stereo not drawn)	7.2%
COc1cc(/C=C(\C#N)c2nc3ccccc3[nH]2)c(Br)cc1O	-96.8%
Cc1ccc(P(=O)(CSC(=N)N)c2ccc(C)cc2)cc1	5.5%
COc1ccc(S(=O)(=O)N(CC(=O)Nc2ccc(C)c(C)c2)c2ccc(C)cc2)cc1OC	17.2%
CCCC(=O)Nc1ccc(NC(=O)c2ccc(Br)cc2)cc1	6.4%
CCOC(=O)C1=C(c2ccccc2)N=c2s/c(=C\c3cccnc3)c(=O)n2C1c1cccc(OC)c1OC (stereo not drawn)	5.1%
C#CCOC(=O)CCN1C(=O)c2cccc3cccc(c23)C1=O	9.8%
Cc1ccc(NC(=O)CN(c2ccc(Br)cc2)S(C)(=O)=O)c(C)c1	5%
Cc1ccc(-c2csc(NC(=O)c3ccc(Cl)c([N+](=O)[O-])c3)n2)cc1	-15.4%
Cn1c(-c2ccc(C=O)o2)nc2c3ccccc3c3ccccc3c21	20.9%
COc1cc(OC)c([N+](=O)[O-])cc1/C=C1/C(C)=C(C#N)c2nc(N)c(C#N)c(C)c21	2.7%
O=C(COc1ccccc1[N+](=O)[O-])Nc1cc(C(F)(F)F)cc(C(F)(F)F)c1	-4.5%
O=C1/C(=C/c2ccc(C(F)(F)F)cc2)SC(=S)N1Cc1ccccc1	1.8%
COC(=O)c1cnn2c(C(F)(F)F)cc(-c3ccc(Br)cc3)nc12	-7.2%

Compound	displacement
COc1ccc(-n2c(=O)c3c(n4c(=S)[nH]nc24)-c2ccccc2CC32CCCCC2)cc1	-29.4%
O=C(c1ccccc1)c1ccc(N2CCOCC2)c([N+](=O)[O-])c1	11.8%
O=C(O)CN(c1ccc(Cl)c(C(F)(F)F)c1)S(=O)(=O)c1ccccc1	8.2%
CCOc1cc(C(=O)Nc2ccc(OCc3ccccc3)cc2)cc(OCC)c1OCC	-1.8%
Cc1ccc(C(=O)CSc2nc3cc(C)c(C)cc3[nH]2)cc1	-9.4%
COc1ccccc1CNS(=O)(=O)c1ccc(NC(C)=O)cc1	3.1%
CCOC(=O)/C(C#N)=N\Nc1ccc(C(N)=O)cc1	7.2%
Cc1ccsc1/C=C1\SC(=S)N(CCC(=O)O)C1=O	2.5%
C#CCSc1nc(N)c(C#N)c(-c2ccc(O)cc2)c1C#N	-104%
Cc1ccc(NC(=O)CN(c2cccc(Br)c2)S(=O)(=O)c2ccccc2)cc1	0.8%
CCN(CC)S(=O)(=O)c1ccc(-c2ccc(S(=O)(=O)N(CC)CC)cc2)cc1	0.7%
CN1C(=O)N(C)C2(c3ccccc3)Nn3c(s/c(=C/c4ccc([N+](=O)[O-])cc4)c3=O)=NC12c1ccccc1 (stereo not drawn)	-3.4%
CCOc1ccccc1NC(=O)C1C2CCC3C(CCC21)C3(Cl)Cl (stereo not drawn)	-3.3%
O=C(CSc1ncccn1)N/N=C/c1ccc(F)cc1	1.9%
COc1ccccc1/C=C1\C(=O)NC(=O)N(c2ccc(Br)cc2)C1=O	-17.8%
c1ccc(C2=NCCn3cccc32)cc1	7.6%
CCC1=NN2C(=N)/C(=C/c3ccc(-c4ccc(F)cc4)o3)C(=O)N=C2S1	69.2%
CCOC(=O)c1ccc(NS(=O)(=O)c2c(C)cc(C)cc2C)cc1	-0.7%
O=C1NC2C(NC(=O)N2c2ccccc2)N1c1ccccc1 (stereo not drawn)	2.6%
COc1cccc(C2(c3cccc(OC)c3)CC2C(=O)Nc2cccc(C(F)(F)F)c2)c1 (stereo not drawn)	-15.7%
CCCCOc1ccccc1C1C(C(=O)OC)=C(C)N(C)C(C)=C1C(=O)OC	-6.4%
CC1CCN(CCCCOc2ccc(C(C)(C)C)cc2)CC1	-2%
O=C(Nc1ccncc1)c1ccc(NC(=O)c2ccco2)cc1	10.7%
Cc1c(NS(=O)(=O)c2ccc(F)cc2)cccc1[N+](=O)[O-]	-2.5%
COc1ccc(C(=O)N=Nc2c(O)n(CN3CCCC3)c3ccccc23)cc1	-7%
N/C(=N\OC(=O)c1cccc(F)c1)c1ccccc1	-7.1%
